Experimental data as given in PubChem BioAssay AID445 (National Center for Advancing Translational Sciences (NCATS), 2006).
About 40 (0.04%) of roughly 110,000 compounds were called active. The shares of active, inactive and inconclusive entries below differ from those in the screen. The call rests on the fitted dose curve; in most records, active means well fitted curve in the direction sought with a large enough effect in the signal ratio (not every such curve was filed as active); inconclusive means small, poorly fitted or top-dose-only effect, or a change in a side signal; inactive means flat fitted curve, though single readings scatter; the % refers to the signal ratio.

Assay: IkB Signaling;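 further: 0% = basal untreated cells and 100% = reference inhibitor full response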
Settings: ABC-DLBCL IkBa-CBG/CBR dual luciferase ratio (green luciferase fused to IkBa over red control in OCI-Ly3 lymphoma cells), 4 h; IkBa stabilization activation: at 57.1 µM (top of the series), scaled: untreated 0%, proteasome inhibitor 100% unless noted
Procedure, shortened: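 In this assay, an IκBα–CBG68 fusion accumulates when IKK-driven degradation is blocked; native CBR normalizes for cell number. OCI-Ly3 cells were treated 4 h with compound and doxycycline, then green and red light read after Chroma-Glo addition.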

Row | SMILES | IkBa stabilization activation
1 | Cn1c(C(=O)NC2CCCCCC2)cc2c(=O)n(C)c3ccccc3c21 | inactive: -1.81%
2 | CC(=O)c1c(C)oc2ccc(N(C(=O)c3ccncc3)S(=O)(=O)c3ccc(C)cc3C)cc12 | inconclusive: 9.52% [signal inhibitor]
3 | CCN(CC)S(=O)(=O)c1ccc(C(=O)NCCSc2c(-c3ccc(OC)cc3)[nH]c3ccccc23)cc1 | inconclusive: 5.99% [signal inhibitor]
4 | CCCCn1nc(NC(=O)c2cccs2)c2cc3cc(OC)ccc3nc21 | inconclusive: 1.21% [signal inhibitor]
5 | COc1cccc(NC(=O)c2ccc(-c3nc(COc4ccc(C)cc4)c(C)o3)cc2)c1 | inconclusive: -0.836% [signal inhibitor]
6 | O=C(Nc1ccc(N2CCN(C(=O)c3ccccc3)CC2)c(Cl)c1)c1ccco1 | inconclusive: -2.99% [signal inhibitor]
7 | Nc1nc2ccccc2n1/N=C/c1ccc(-c2ccccc2)o1 | inconclusive: 9.1% [signal inhibitor]
8 | Cc1ccc2c(c1)c1c(c(=O)n(-c3ccccc3C)c(=O)n1CC(=O)NCC1CCCO1)n2C (stereo not drawn) | inconclusive: -0.358% [signal inhibitor]
9 | Cc1cc(=O)n2nc(N3CCC(C(=O)Nc4ccc(Br)cc4F)CC3)sc2n1 | inconclusive: 2.46% [signal inhibitor]
10 | Cc1ccc(C)c(NC(=O)CCCN2C(=O)C(c3ccccc3)Oc3cccnc32)c1 (stereo not drawn) | inactive: 0.00296%
11 | CCOC(=O)c1cccc(NC(=O)c2cc3cc4ccc(C)cc4nc3s2)c1 | inconclusive: -0.348% [signal inhibitor]
12 | Cc1cccc(NC(=O)Cn2c(=O)n(CCC(=O)N3CCc4ccccc4C3)c(=O)c3ccccc32)c1 | inconclusive: -4.65% [signal inhibitor]
13 | O=C(CCN1CCC(c2ccccc2)C1)c1cccs1 (stereo not drawn) | inconclusive: 0.732% [signal inhibitor]
14 | Nc1c(C(=O)NCc2ccccc2)nnn1Cc1cccc(Br)c1 | inactive: -1.45%
15 | CCOC(=O)c1cc(-c2ccc(F)cc2)n(CCC(=O)NC2CCCCC2)c1C | inconclusive: -0.918% [signal inhibitor]
16 | CCCCCCCNS(=O)(=O)c1cccc2c(Cl)cccc12 | inconclusive: 0.184% [signal inhibitor]
17 | C[C@H]1CCCC=CC2C[C@H](OC(=O)CN(C)C)C[C@@H]2[C@@H](O)/C=C\C(=O)O1 (stereo partly drawn) | inactive: 0.964% [at 11.4 µM, scaled: untreated 0%, proteasome inhibitor 100%]
18 | CCOc1ccc(NC(=O)NCCN2CCN(c3ccccc3F)CC2)cc1 | inconclusive: 1.68% [signal inhibitor]
